Reference: the supplement of paper PMC8821664
Structures can show the parent of a compound that is named as a salt. This is one part of the list. Single values are uncertain, as repeats are few or missing.
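Also: monoclonal Beas-2B line stably carrying CMV promoter-driven AQP5-HiBiT, 5,000 cells per well in 384-well plates, lytic HiBiT plus LgBiT NanoLuc luminescence, FDA-approved drug library screen.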

These compounds were tested on Beas-2B AQP5-HiBiT reporter cells (assay: AQP5-HiBiT luminescence relative to vehicle (ratio to vehicle); higher = higher AQP5-HiBiT protein abundance). Conditions: 10 µM; 18 h.
C#C[C@]1(O)CC[C@H]2[C@@H]3CCc4cc(OC)ccc4[C@H]3CC[C@@]21C [Mestranol] was tested, and the AQP5-HiBiT luminescence was 1.14.
C[N+]1(C)CCC(=C(c2ccccc2)c2ccccc2)CC1 [Diphemanil mesylate] gave an AQP5-HiBiT luminescence of 1.06.
For COC(=O)N[C@H](C(=O)N[C@@H](Cc1ccccc1)[C@@H](O)CN(Cc1ccc(-c2ccccn2)cc1)NC(=O)[C@@H](NC(=O)OC)C(C)(C)C)C(C)(C)C [Atazanavir], the AQP5-HiBiT luminescence was 0.826.
With CC(C)c1ccc2oc3nc(N)c(C(=O)O)cc3c(=O)c2c1 [Amlexanox] the AQP5-HiBiT luminescence was 1.
Compound CC1(C)O[C@@H]2C[C@H]3[C@@H]4C[C@H](F)C5=CC(=O)C=C[C@]5(C)[C@@]4(F)[C@@H](O)C[C@]3(C)[C@]2(C(=O)CO)O1 [Fluocinolone acetonide] has an AQP5-HiBiT luminescence of 0.785.
With CN1CCc2nc(C(=O)N[C@@H]3C[C@@H](C(=O)N(C)C)CC[C@@H]3NC(=O)C(=O)Nc3ccc(Cl)cn3)sc2C1 [Edoxaban] the AQP5-HiBiT luminescence was 0.722.
CC[C@H](C)C(=O)O[C@H]1C[C@H](O)C=C2C=C[C@H](C)[C@H](CC[C@@H](O)C[C@@H](O)CC(=O)O)[C@H]21 [Pravastatin sodium] was tested, and the AQP5-HiBiT luminescence was 0.587.
Nc1ccc(S(=O)(=O)Nc2nccs2)cc1 [Sulfathiazole] was tested, and the AQP5-HiBiT luminescence was 0.737.
NC(=O)c1cn(Cc2c(F)cccc2F)nn1 [Rufinamide] showed an AQP5-HiBiT luminescence of 0.674.
C=CC[N+]1([C@H]2C[C@H]3[C@@H]4CC[C@H]5C[C@H](O)[C@@H](N6CCOCC6)C[C@]5(C)[C@H]4CC[C@]3(C)[C@H]2OC(C)=O)CCCC1 [Rocuronium bromide] gave an AQP5-HiBiT luminescence of 0.974.
CCC(=O)O[C@@H](O[P@](=O)(CCCCc1ccccc1)CC(=O)N1C[C@H](C2CCCCC2)C[C@H]1C(=O)O)C(C)C [Fosinopril sodium] gave an AQP5-HiBiT luminescence of 0.993.
OCCN1C[C@H](O)[C@@H](O)[C@H](O)[C@H]1CO [Miglitol] showed an AQP5-HiBiT luminescence of 0.902.
In the case of CC[C@@H]([C@H](C)O)n1ncn(-c2ccc(N3CCN(c4ccc(OC[C@@H]5CO[C@@](Cn6cncn6)(c6ccc(F)cc6F)C5)cc4)CC3)cc2)c1=O [Posaconazole], the AQP5-HiBiT luminescence is reported as 0.838.
With COc1cc(CNC(=O)CCCC/C=C/C(C)C)ccc1O [Capsaicin] the AQP5-HiBiT luminescence was 1.12.
CC[C@H]1OC(=O)[C@H](C)[C@@H](O[C@H]2C[C@@](C)(OC)[C@@H](O)[C@H](C)O2)[C@H](C)[C@@H](O[C@@H]2O[C@H](C)C[C@H](N(C)C)[C@H]2O)[C@](C)(O)C[C@@H](C)C(=O)[C@H](C)[C@@H](O)[C@]1(C)O [Erythromycin] showed an AQP5-HiBiT luminescence of 0.828.
Compound CCOC(=O)c1ncn2c1CN(C)C(=O)c1cc(F)ccc1-2 [Flumazenil] has an AQP5-HiBiT luminescence of 1.08.
Nc1ccn([C@@H]2O[C@H](CO)[C@@H](O)C2(F)F)c(=O)n1 [Gemcitabine] gave an AQP5-HiBiT luminescence of 0.568.
Work on CC(C)C[C@H](NC(=O)[C@H](Cc1ccccc1)NC(=O)c1cnccn1)B(O)O [Bortezomib (PS-341)] yielded an AQP5-HiBiT luminescence of 98.7.
Cc1noc(NS(=O)(=O)c2ccc(N)cc2)c1C [Sulfisoxazole] showed an AQP5-HiBiT luminescence of 1.16.
With NC(=O)c1ncn([C@@H]2O[C@H](CO)[C@@H](O)[C@H]2O)n1 [Ribavirin] the AQP5-HiBiT luminescence was 1.14.
With CC1COc2c(N3CCN(C)CC3)c(F)cc3c(=O)c(C(=O)O)cn1c23 (stereo not given) [Ofloxacin] the AQP5-HiBiT luminescence was 0.881.
CC1=Nc2ccc(Cl)cc2S(=O)(=O)N1 [Diazoxide] showed an AQP5-HiBiT luminescence of 0.846.
For CN(CCOc1ccc(CC2SC(=O)NC2=O)cc1)c1ccccn1 (stereo not given) [Rosiglitazone], the AQP5-HiBiT luminescence was 1.06.
Nc1ccc(S(=O)(=O)NC(=O)c2ccccc2)cc1 [Sulfabenzamide] was tested, and the AQP5-HiBiT luminescence was 1.03.
Work on CCNC(=O)CCC/C=C\C[C@@H]1[C@@H](/C=C/[C@@H](O)CCc2ccccc2)[C@H](O)C[C@@H]1O [Bimatoprost] yielded an AQP5-HiBiT luminescence of 0.632.
Work on COc1cc2nc(N3CCN(C(=O)c4ccco4)CC3)nc(N)c2cc1OC [Prazosin hydrochloride] yielded an AQP5-HiBiT luminescence of 2.56.
CN1CCN(C(c2ccccc2)c2ccccc2)CC1 [Cyclizine 2hydrochloride] was tested, and the AQP5-HiBiT luminescence was 1.03.
With CCCCS(=O)(=O)N[C@@H](Cc1ccc(OCCCCC2CCNCC2)cc1)C(=O)O [Tirofiban hydrochloride monohydrate] the AQP5-HiBiT luminescence was 0.615.
CC(=O)CC(c1ccccc1)c1c(O)c2ccccc2oc1=O (stereo not given) [Warfarin sodium] was tested, and the AQP5-HiBiT luminescence was 0.95.
For CCCc1nc(C(C)(C)O)c(C(=O)OCc2oc(=O)oc2C)n1Cc1ccc(-c2ccccc2-c2nnn[nH]2)cc1 [Benicar], the AQP5-HiBiT luminescence was 0.87.
